Molecular target: T1, human GARP (human, UniProt Q14392 20-662)
T1 construct: also called hGARP; free GARP
T1 sequence: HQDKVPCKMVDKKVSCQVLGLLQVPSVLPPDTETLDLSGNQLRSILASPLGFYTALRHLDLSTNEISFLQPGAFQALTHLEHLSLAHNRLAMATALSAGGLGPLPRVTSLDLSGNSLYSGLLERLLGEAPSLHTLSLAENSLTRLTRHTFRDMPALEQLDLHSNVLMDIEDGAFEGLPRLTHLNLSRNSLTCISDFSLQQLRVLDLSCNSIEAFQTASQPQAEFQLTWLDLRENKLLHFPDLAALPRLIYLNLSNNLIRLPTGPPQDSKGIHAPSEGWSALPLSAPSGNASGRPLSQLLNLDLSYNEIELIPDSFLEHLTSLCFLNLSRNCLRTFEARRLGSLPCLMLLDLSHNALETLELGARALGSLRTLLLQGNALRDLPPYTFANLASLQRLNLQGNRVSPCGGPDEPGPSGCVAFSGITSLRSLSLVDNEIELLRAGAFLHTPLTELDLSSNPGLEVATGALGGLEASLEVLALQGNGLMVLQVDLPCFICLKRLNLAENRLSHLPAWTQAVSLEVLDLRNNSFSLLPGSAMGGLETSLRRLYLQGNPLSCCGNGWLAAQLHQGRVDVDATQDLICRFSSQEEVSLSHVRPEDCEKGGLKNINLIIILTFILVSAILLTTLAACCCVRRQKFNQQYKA
Assay: FACS with anti-mLAP on BW+hGARP

binding result: binds
B1: murine TGF-β1 (ligand)
chain: not shown
notes: also called mTGF-β1
